# Source: PubChem BioAssay AID686970 (National Center for Advancing Translational Sciences (NCATS), 2013)
# About 6,000 (1.7%) of roughly 360,000 compounds were called active. Inconclusive means that the source gave no clear call. Such entries were picked first, then a sample of the others. Calls follow the shape of the dose curve; as a rule, active = well fitted cell-killing curve with a large enough effect; inconclusive = small, poorly fitted or top-dose-only effect, or effect the other way; inactive = flat fitted curve, though single readings scatter. No potency is given beside an inconclusive call; the fits are too rough.
# Assay: qHTS for induction of synthetic lethality in tumor cells producing 2HG: qHTS for the HT-1080-NT fibrosarcoma cell line;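 also: NT is the 2HG producing partner of a matched IDH1 knockdown line; nearly all actives have a fitted effect of over 55% in size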;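 as to activity, negative = less viability: 0% = DMSO-treated cells and -100% = media-only wells without cells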
# Conditions: HT-1080-NT fibrosarcoma viability, CellTiter-Glo ATP luminescence, 48 h; activity, negative = less viability: at 46.1 µM (top of the series) unless noted
# How it was run: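 Toxicity toward the 2HG-producing NT line was scored as %Activity, normalised to DMSO and no-cell wells, from CellTiter-Glo luminescence after 48 hours' treatment.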
# Potency is read from the fitted curve at half-maximal effect; tags tell the direction and shape of the fitted curve.
Compound,Potency,"activity, negative = less viability"
O=C(Nc1ncn[nH]1)c1ccc(S(=O)(=O)N2CCOCC2)cc1,"inconclusive [rising, single point]",–
CC(O)CCC(=O)NCCNC(=O)CCC(C)O (stereo unspecified),inactive,–
O=C(CN1CCN(c2ccc(F)cc2)CC1)N1CCC(Cc2ccccc2)CC1,inactive,–
NC(=O)N/N=C(/CCCCCC/C(=N\NC(N)=O)c1ccccc1)c1ccccc1,–,inconclusive: -32.2% [cytotoxic]
Fc1ccc(C(c2nnnn2Cc2cccs2)N2CCN(C3CCCCC3)CC2)cc1 (stereo unspecified),inactive,–
Cc1occc1-c1nnc(SCc2nnc(-c3ccc(Cl)cc3)o2)n1C,"inconclusive [rising, partial curve]",–
CCCCC(=O)Nc1ccc(C(=O)Nc2ccc3c(c2)OCO3)cc1,"inconclusive [cytotoxic, full curve]",–
CN(C)CCCNc1nc2cc(-c3ccc(F)cc3)sc2c(=O)n1C,"inconclusive [cytotoxic, single point]",–
CCN(CC)S(=O)(=O)c1ccc(Cl)c(NC(=O)COc2ccccc2[N+](=O)[O-])c1,"inconclusive [cytotoxic, single point]",–
CCN1CCC2(CC1)N=C(c1ccc(F)cc1)C(=S)N2C(=O)c1ccc(C)cc1,"inconclusive [cytotoxic, partial curve]",–
O=C(N/N=C/c1ccc([N+](=O)[O-])o1)c1ccccc1NS(=O)(=O)c1cccs1,"inconclusive [cytotoxic, single point]",–
O=c1cc(-c2ccccc2)[nH]c2ccc(F)cc12,"inconclusive [cytotoxic, full curve]",–
COc1cc(-c2cc(C(=O)Nc3ccc(O)cc3)c3ccccc3n2)cc(OC)c1OC,"inconclusive [cytotoxic, single point]",–
CCCCNc1c(-c2cccc(Sc3ccc(OC)cc3)c2)nc2ccccn12,"inconclusive [cytotoxic, single point]",–
NNC(=O)c1cc2c(N3CCC(Cc4ccccc4)CC3)ncnc2s1,"inconclusive [cytotoxic, partial curve]",–
Cc1cccc(-c2nc3ccccc3c(=O)[nH]2)c1,"inconclusive [cytotoxic, single point]",–
CCCC(=O)Nc1ccc2oc(-c3cccnc3)nc2c1,"inconclusive [rising, partial curve]",–
Cc1ccccc1OCC(=O)O/N=C(\N)Cc1cccs1,inactive,–
O=C(COC(=O)c1ccc(S(=O)(=O)N2CCCC2)cc1)Nc1ccc(N2CCOCC2)cc1,inactive,–
CCN(CC)CC(=O)Nc1ccc(/C(C)=N/NC2=NCCN2)cc1,inactive,–
C(=NNc1ccc2ccccc2n1)c1ccccn1,active: 18.4 µM,–
COc1ccccc1C1=NOC(C(=O)N2CCN(C(=O)c3ccco3)CC2)C1 (stereo unspecified),"inconclusive [rising, single point]",–
O=C(NCCCN1CCCC1)C1CCC(=O)N1C1CCCCC1 (stereo unspecified),"inconclusive [rising, single point]",–
N#C/C(=N\Nc1cccc(F)c1)C(=O)C1CC1,"inconclusive [cytotoxic, single point]",–

Compound,Potency,"activity, negative = less viability"
O=C(N=Nc1c(O)[nH]c2ccc(Br)cc12)c1cc(-c2cccs2)nc2ccccc12,–,inconclusive: -20.7% [cytotoxic]
Cc1ccc(C(=O)NNC(=S)NC(=O)c2ccc(Cl)cc2Cl)cc1,"inconclusive [cytotoxic, single point]",–
COc1ccc(-c2ccc(C(=O)Nc3ccccc3)c3occc23)c(C)c1,"inconclusive [cytotoxic, single point]",–
O=C(/C=C/c1ccccc1)CCN1CCCCC1,"inconclusive [cytotoxic, partial curve]",–
CC(=O)N(C(C)=O)c1nc(-c2ccccc2)cn1/N=C/c1ccccc1,"inconclusive [cytotoxic, single point]",–
CCOc1ccc(-c2nnn(CC(=O)Nc3cc(OC)ccc3OC)n2)cc1OCC,"inconclusive [cytotoxic, partial curve]",–
CCc1c(C)c(C#N)c2[nH]c3ccccc3n2c1=S,"inconclusive [cytotoxic, single point]",–
CCOc1ccc(NC(=S)NC(=O)c2ccco2)cc1,inactive,–
CCc1ccc(NC2=NCC(c3ccccc3)S2)cc1 (stereo unspecified),"inconclusive [cytotoxic, partial curve]",–
Cc1nc(NC(=O)C2CC2)sc1C(=O)Nc1cccc(Cl)c1,"inconclusive [cytotoxic, partial curve]",–
N=C1S/C(=C\c2cn[nH]c2-c2ccc(F)cc2)C(=O)N1c1ccccc1F,–,inconclusive: 34.7%
COc1cc(C#Cc2c(-c3cncn3C)n(C)c3ccc(Br)cc23)cc(OC)c1,"inconclusive [cytotoxic, partial curve]",–
O=C(CN1CCCN(Cc2ccc(F)cc2Cl)C1=O)NCc1ccccc1,inactive,–
C=CCC1c2cccc(C(=O)O)c2C(=O)N1c1cccc(C)c1 (stereo unspecified),"inconclusive [cytotoxic, single point]",–
COc1ccc(OC(=O)c2cccc([N+](=O)[O-])c2)c(C(=O)/C=C/c2cccs2)c1,"inconclusive [cytotoxic, single point]",–
N#Cc1c(NC(=O)c2ccccc2Cl)n(Cc2ccccc2)c2nc3ccccc3nc12,"inconclusive [cytotoxic, single point]",–
O=C(CC1C(=O)NCCN1Cc1c(F)cccc1Cl)NC1CCCCCC1 (stereo unspecified),inactive,–
Oc1ccc(/C=N/N=C/c2ccc(O)c(O)c2)cc1O,"inconclusive [cytotoxic, partial curve]",–
CC[N+]1(C)CCC(O)(c2ccc(OC)cc2)C(C(=O)c2ccc(OC)cc2)C1 (stereo unspecified),"inconclusive [cytotoxic, single point]",–
CCc1nc2c(OCc3cc(Cl)cc(Cl)c3)cccn2c1N(C=O)Cc1ccccc1,"inconclusive [cytotoxic, single point]",–
CCCCCc1ccc(-c2nnc(N)s2)cc1,inactive,–
COc1ccc(C(=O)Nc2ccccc2C(=O)N/N=C/c2ccc(O)c(OC)c2)cc1,active: 5.8 µM,–
O=C(Nc1ccccc1)Nc1ncc(C(F)(F)F)cc1Cl,inactive,–
CCOC(=O)N1CCC(n2c(SCC(=O)NCCC3=CCCCC3)nc3ccccc3c2=O)CC1,"inconclusive [cytotoxic, single point]",–

Compound,Potency,"activity, negative = less viability"
O=C(Nc1ccccc1F)C1CCCN1S(=O)(=O)c1cccc2nsnc12 (stereo unspecified),inactive,–
NCCCC(=O)O,–,inconclusive: 20.8%
COc1ccc(C(=O)N/N=C/c2cc(Br)ccc2O)cc1OC,"inconclusive [cytotoxic, full curve]",–
COc1ccccc1-c1cccc(-c2nc(C(=O)Nc3nccs3)cc3c2[C@@H](CCO)N(C(C)=O)C3)c1,"inconclusive [cytotoxic, single point]",–
CC(C)Cn1c(/C=C/c2ccccc2)nc2ccccc21,"inconclusive [cytotoxic, single point]",–
COc1ccc(CCNS(=O)(=O)c2cc3c4c(c2)CCN4C(=O)CC3)cc1,inactive,–
CC(=O)Nc1cc(-c2ccc(N)nc2)cn2c(-c3cccc(C(F)(F)F)c3)cnc12,"inconclusive [cytotoxic, single point]",–
Cc1cccc(N2CCN(C(C(=O)NCc3ccccc3)c3ccc(F)cc3)CC2)c1C (stereo unspecified),"inconclusive [cytotoxic, single point]",–
COc1ccccc1C(=O)OCCNC(=O)Cn1cnc2c1c(=O)n(C)c(=O)n2C,inactive,–
C/C(CC(=O)NCc1ccc(Cl)cc1)=N\NC(=O)COc1ccc(C)cc1Br,"inconclusive [cytotoxic, partial curve]",–
Cc1cccc(C(=O)NCC(c2ccc(F)cc2)N2CCOCC2)c1 (stereo unspecified),"inconclusive [rising, single point]",–
Cc1ccc(S(=O)(=O)N2CC3C(=O)CC(c4ccccc4)N(S(=O)(=O)c4ccc(C)cc4)C3CC2c2cccc(Cl)c2)cc1 (stereo unspecified),"inconclusive [rising, single point]",–
Cc1ccc(SCC(=O)N/N=C/c2ccco2)cc1,inactive,–
COc1cccc(CNc2nc3cc(-c4ccccc4)sc3c(=O)n2C)c1,"inconclusive [cytotoxic, single point]",–
CC(C)N(C(=O)[C@H]1C[C@H](CC(=O)NCc2ccco2)C(=O)N2CCc3c([nH]c4ccc(Cl)cc34)[C@]12C)C(C)C,"inconclusive [cytotoxic, partial curve]",–
COc1ccc(NC(=O)c2cc3c(s2)CCC3)cc1S(=O)(=O)N1CCOCC1,inactive,–
C(=C\c1ccccc1)/CN1CCN(c2ncnc3c2oc2ccccc23)CC1,"inconclusive [cytotoxic, single point]",–
COc1ccccc1N1CCN(C(=O)c2cc(=O)c3cc(C)cc(C)c3o2)CC1,active: 0.0206 µM,–
COc1cc(C(=O)N(Cc2ccccc2)c2cccc(C)c2)ccc1OCC(=O)N1CCOCC1,inactive,–
CC(C)NC(=O)N1c2ccccc2Sc2ccccc21,"inconclusive [cytotoxic, single point]",–
O=C(Nc1ccc2oc(-c3ccncc3)nc2c1)c1ccc(F)cc1,inactive,–
Cn1c(CNC(=O)c2ccco2)nnc1SCC(=O)Nc1ccccc1Cl,inactive,–
CC1CC=C(O)C12OCC(C)(C)CO2 (stereo unspecified),inactive,–
